The other results are listed elsewhere or left out.
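Note: jurkat cells carrying a lentiviral library of mutant zinc finger degrons fused to EGFP plus mCherry, mCherry+ cells FACS sorted, degron abundance counted by next-generation sequencing.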

This assay deals with no compound (DMSO). In words: log2 fold change of degron read counts, EGFP-low vs EGFP+ sorted cells; higher = lower degron-EGFP level without compound (poor expression or instability). To be noted: compound: DMSO control; 18 h.
On to FGCDVCGACFTQKGNLLRHIKL, for which the “log2 fold change of degron read counts” value was -0.789.

Regarding LLCPICGFYCTQKGNLLRHIKL, the “log2 fold change of degron read counts” value came out at 2.09.

Turning to FLCNQCGAAFTQKGNLLRHIKL, the “log2 fold change of degron read counts” value was -1.62.

For LSCEICGFHCTQKGNLLRHIKL, the “log2 fold change of degron read counts” value is -0.749.

Consider FFCEICGHWFTQKGNLLRHIKL, for which the “log2 fold change of degron read counts” value came to 0.78.

Take FLCPICGHIFTQKGNLLRHIKL: the “log2 fold change of degron read counts” value was 0.661.

Regarding FRCPVCGAQFTQKGNLLRHIKL, the “log2 fold change of degron read counts” value is -0.701.

As to LTCEICGFPCTQKGNLLRHIKL, the “log2 fold change of degron read counts” value is -0.246.

With FECNQCGALFTQKGNLLRHIKL, the “log2 fold change of degron read counts” value was -1.13.

As to FMCDQCGAAFTQKGNLLRHIKL, the “log2 fold change of degron read counts” value is -3.1.

In the case of FTCNQCGHKFTQKGNLLRHIKL, the “log2 fold change of degron read counts” value was -0.375.

For FGCDQCGAAFTQKGNLLRHIKL, the “log2 fold change of degron read counts” value is -1.8.

As for FICDVCGAWFTQKGNLLRHIKL, the “log2 fold change of degron read counts” value is -0.51.

With LTCEICGFTCTQKGNLLRHIKL, the “log2 fold change of degron read counts” value is -0.864.

Regarding LMCNQCGFDCTQKGNLLRHIKL, the “log2 fold change of degron read counts” value was -0.543.

Consider LKCPICGFICTQKGNLLRHIKL, for which the “log2 fold change of degron read counts” value was determined as 0.0643.

On to FVCPICGHTFTQKGNLLRHIKL, for which the “log2 fold change of degron read counts” value was 0.0796.

For the sequence FNCEQCGAWFTQKGNLLRHIKL, the “log2 fold change of degron read counts” value was -1.14.

As for FQCPICGHFFTQKGNLLRHIKL, the “log2 fold change of degron read counts” value came to 0.657.

For the sequence FNCSVCGHFFTQKGNLLRHIKL, the “log2 fold change of degron read counts” value was determined as 0.897.

Consider FQCEICGAWFTQKGNLLRHIKL, for which the “log2 fold change of degron read counts” value is -1.17.

On to FICNICGACFTQKGNLLRHIKL, for which the “log2 fold change of degron read counts” value was determined as 0.418.

Regarding FLCEQCGALFTQKGNLLRHIKL, the “log2 fold change of degron read counts” value is -1.21.

In the case of FVCDICGATFTQKGNLLRHIKL, the “log2 fold change of degron read counts” value is -1.11.

In the case of FCCNVCGAFFTQKGNLLRHIKL, the “log2 fold change of degron read counts” value was -0.0172.

Turning to FYCNQCGHCFTQKGNLLRHIKL, the “log2 fold change of degron read counts” value was found to be 0.174.

As for FTCEVCGAWFTQKGNLLRHIKL, the “log2 fold change of degron read counts” value is -0.628.

In the case of FNCDICGAKFTQKGNLLRHIKL, the “log2 fold change of degron read counts” value was -1.52.

Turning to FACNQCGRSFTQKGNLLRHIKL, the “log2 fold change of degron read counts” value was -1.21.

Turning to FFCDVCGAEFTQKGNLLRHIKL, the “log2 fold change of degron read counts” value was -1.94.

For FQCEICGRVFTQKGNLLRHIKL, the “log2 fold change of degron read counts” value is -0.67.

In the case of LACPICGFSCTQKGNLLRHIKL, the “log2 fold change of degron read counts” value came out at 0.505.

With FVCPVCGASFTQKGNLLRHIKL, the “log2 fold change of degron read counts” value is -0.591.

Turning to FWCEICGHPFTQKGNLLRHIKL, the “log2 fold change of degron read counts” value was 0.303.

Consider FDCNQCGAYFTQKGNLLRHIKL, for which the “log2 fold change of degron read counts” value worked out at 1.13.

Regarding FACNVCGAVFTQKGNLLRHIKL, the “log2 fold change of degron read counts” value was -0.739.

Take FMCSVCGHPFTQKGNLLRHIKL: the “log2 fold change of degron read counts” value is -0.171.

As for FLCDQCGASFTQKGNLLRHIKL, the “log2 fold change of degron read counts” value was -2.22.

For LGCNQCGFTCTQKGNLLRHIKL, the “log2 fold change of degron read counts” value is 0.876.

Take FECEICGHMFTQKGNLLRHIKL: the “log2 fold change of degron read counts” value is -2.03.

As for FLCEVCGARFTQKGNLLRHIKL, the “log2 fold change of degron read counts” value was -1.53.

Consider LFCPICGFQCTQKGNLLRHIKL, for which the “log2 fold change of degron read counts” value is 0.773.

Turning to FKCSVCGHWFTQKGNLLRHIKL, the “log2 fold change of degron read counts” value was determined as 0.389.

Consider FKCDICGAWFTQKGNLLRHIKL, for which the “log2 fold change of degron read counts” value was -0.461.

In the case of FSCNQCGAWFTQKGNLLRHIKL, the “log2 fold change of degron read counts” value came to 0.104.

Take FYCPICGAAFTQKGNLLRHIKL: the “log2 fold change of degron read counts” value amounted to 0.0146.

With FECPICGHHFTQKGNLLRHIKL, the “log2 fold change of degron read counts” value was -0.873.

On to FQCPICGHVFTQKGNLLRHIKL, for which the “log2 fold change of degron read counts” value is -0.19.

With FICEICGRTFTQKGNLLRHIKL, the “log2 fold change of degron read counts” value was -1.55.

For the sequence LSCEICGFSCTQKGNLLRHIKL, the “log2 fold change of degron read counts” value was -0.736.

For the origin of these results see the supplement of paper PMC12645437, “Orthogonal IMiD-Degron Pairs Induce Selective Protein Degradation in Cells” (ACS Chemical Biology, 2025).
